Assay results as given in patent publication US20250353901A1 (ON TARGET MOLECULES BIOTECH, published 2025).

Biological target: T1, P2X7 (human, UniProt Q99572 1-595)
T1 construct: also called human P2X7 receptor; P2X7 receptor
T1 sequence (looked up): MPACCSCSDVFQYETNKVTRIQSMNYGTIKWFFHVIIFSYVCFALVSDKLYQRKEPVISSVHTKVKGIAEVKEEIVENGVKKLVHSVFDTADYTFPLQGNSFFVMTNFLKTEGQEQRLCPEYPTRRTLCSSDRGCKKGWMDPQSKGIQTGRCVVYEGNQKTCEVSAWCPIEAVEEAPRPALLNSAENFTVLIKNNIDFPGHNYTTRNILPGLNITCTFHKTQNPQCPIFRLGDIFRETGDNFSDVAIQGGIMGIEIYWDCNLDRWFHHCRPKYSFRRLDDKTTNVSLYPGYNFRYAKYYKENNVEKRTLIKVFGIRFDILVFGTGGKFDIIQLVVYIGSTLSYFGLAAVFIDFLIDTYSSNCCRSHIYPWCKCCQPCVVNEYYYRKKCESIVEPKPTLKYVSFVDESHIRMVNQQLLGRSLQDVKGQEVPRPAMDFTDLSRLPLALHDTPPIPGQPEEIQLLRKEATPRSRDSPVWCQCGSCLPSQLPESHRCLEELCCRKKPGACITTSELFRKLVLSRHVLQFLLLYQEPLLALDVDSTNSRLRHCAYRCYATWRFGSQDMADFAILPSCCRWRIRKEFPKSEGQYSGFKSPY
Assay: protein painting and mass spectrometry of treated prostate and bladder cancer cell lines

binding result: no binding
B1: Fusion Protein 2G7.A8 scFv-hFc-7F11.B9 scFv (Fc fusion)
chain: EVKLEESGGGLVQPGGSMKLSCVASGFTFSNYWMNWVRQSPEKGLEWVAQIRLRSDDYATHYAESVKGRFTISRDDSQSSVYLQMNNLRAEDTGIYYCTGPANWGYWYFDVWGTGTTVTVSSGGGGSGGGGSGGGGSDVLMTQTPLSLPVSLGDQASISCRSSQSIVQTNGNTYLEWYLQKPGQSPKLLIYKVSNRFSGVPDRFSGSGSGTDFTLKISRVEAEDLGVYYCFQGSHVPLTFGAGTKLELKGGG[letters of human IgG1 Fc not shown]GGGEVQLQQSGTVLARPGASVKMSCKTSGYTFTSYWMHWVKQRPGQGLEWIGAIYPGNSDTSYNQKFKGKAKLTAVTSASTAYMELSSLTHEDSAVYYCTRRGYYYGSSSHFDYWGQGTTLTVSSGGGGSGGGGSGGGGSDVVMTQTPLSLPVSLGDQASISCRSSQSLVHSNGNTYLHWYLQKPGQSPKLLIYKVSNRFSGVPDRFSGSGSGTDFTLKISRVEAEDLGVYFCSQSTHVPPTFGGGTKLEIK
notes: also called Fc fusion protein; 7F11.B9 scFv-hFc-2G7.A8
